{"source": "paper PMC9911399", "about": "“Two distinct binding modes provide the RNA-binding protein RbFox with extraordinary sequence specificity”", "binders": {"B1": {"name": "UUGUUCG (DNA:RNA)", "RNA": "GGGAGACCGGAAUUCAGAUUGUCCUUGUUCGUUAAAUCCCGUCGUAGCCACCA", "DNA 1": "CAATCTGAATTCCGGTCTCCC", "DNA 2": "TGGTGGCTACGACGGGATT"}, "B2": {"name": "UCAAAGA (DNA:RNA)", "RNA": "B1 RNA with U26C, G27A, U28A, U29A, C30G, G31A", "DNA 1": "CAATCTGAATTCCGGTCTCCC", "DNA 2": "TGGTGGCTACGACGGGATT"}, "B3": {"name": "GAGCGUA (DNA:RNA)", "RNA": "B1 RNA with U25G, U26A, U28C, U29G, C30U, G31A", "DNA 1": "CAATCTGAATTCCGGTCTCCC", "DNA 2": "TGGTGGCTACGACGGGATT"}, "B4": {"name": "UAAUGGG (DNA:RNA)", "RNA": "B1 RNA with U26A, G27A, U29G, C30G", "DNA 1": "CAATCTGAATTCCGGTCTCCC", "DNA 2": "TGGTGGCTACGACGGGATT"}, "B5": {"name": "CUGAAAG (DNA:RNA)", "RNA": "B1 RNA with U25C, U28A, U29A, C30A", "DNA 1": "CAATCTGAATTCCGGTCTCCC", "DNA 2": "TGGTGGCTACGACGGGATT"}, "B6": {"name": "UGCACCU (DNA:RNA)", "RNA": "B1 RNA with U26G, G27C, U28A, U29C, G31U", "DNA 1": "CAATCTGAATTCCGGTCTCCC", "DNA 2": "TGGTGGCTACGACGGGATT"}, "B7": {"name": "GACGAGC (DNA:RNA)", "RNA": "GGGAGACCGGAAUUCAGAUUGUCCGACGAGCUUAAAUCCCGUCGUAGCCACCA", "DNA 1": "CAATCTGAATTCCGGTCTCCC", "DNA 2": "TGGTGGCTACGACGGGATT"}, "B8": {"name": "GUUCCGC (DNA:RNA)", "RNA": "B7 RNA with A26U, C27U, G28C, A29C", "DNA 1": "CAATCTGAATTCCGGTCTCCC", "DNA 2": "TGGTGGCTACGACGGGATT"}, "B9": {"name": "CUUCGAG (DNA:RNA)", "RNA": "B1 RNA with U25C, G27U, U28C, U29G, C30A", "DNA 1": "CAATCTGAATTCCGGTCTCCC", "DNA 2": "TGGTGGCTACGACGGGATT"}, "B10": {"name": "CGCCGUG (DNA:RNA)", "RNA": "B7 RNA with G25C, A26G, G28C, A29G, G30U, C31G", "DNA 1": "CAATCTGAATTCCGGTCTCCC", "DNA 2": "TGGTGGCTACGACGGGATT"}, "B11": {"name": "UCGCCUU (DNA:RNA)", "RNA": "B1 RNA with U26C, U28C, U29C, C30U, G31U", "DNA 1": "CAATCTGAATTCCGGTCTCCC", "DNA 2": "TGGTGGCTACGACGGGATT"}, "B12": {"name": "AAUUCCG (DNA:RNA)", "RNA": "B1 RNA with U25A, U26A, G27U, U29C", "DNA 1": "CAATCTGAATTCCGGTCTCCC", "DNA 2": "TGGTGGCTACGACGGGATT"}, "B13": {"name": "CUCCGCU (DNA:RNA)", "RNA": "B1 RNA with U25C, G27C, U28C, U29G, G31U", "DNA 1": "CAATCTGAATTCCGGTCTCCC", "DNA 2": "TGGTGGCTACGACGGGATT"}, "B14": {"name": "CUGAACG (DNA:RNA)", "RNA": "B1 RNA with U25C, U28A, U29A", "DNA 1": "CAATCTGAATTCCGGTCTCCC", "DNA 2": "TGGTGGCTACGACGGGATT"}, "B15": {"name": "UGAAAAC (DNA:RNA)", "RNA": "B7 RNA with G25U, A26G, C27A, G28A, G30A", "DNA 1": "CAATCTGAATTCCGGTCTCCC", "DNA 2": "TGGTGGCTACGACGGGATT"}, "B16": {"name": "GAACACG (DNA:RNA)", "RNA": "B7 RNA with C27A, G28C, G30C, C31G", "DNA 1": "CAATCTGAATTCCGGTCTCCC", "DNA 2": "TGGTGGCTACGACGGGATT"}, "B17": {"name": "GUAUUAC (DNA:RNA)", "RNA": "B1 RNA with U25G, G27A, C30A, G31C", "DNA 1": "CAATCTGAATTCCGGTCTCCC", "DNA 2": "TGGTGGCTACGACGGGATT"}, "B18": {"name": "CACAUAU (DNA:RNA)", "RNA": "B7 RNA with G25C, G28A, A29U, G30A, C31U", "DNA 1": "CAATCTGAATTCCGGTCTCCC", "DNA 2": "TGGTGGCTACGACGGGATT"}, "B19": {"name": "UCAGUGG (DNA:RNA)", "RNA": "B1 RNA with U26C, G27A, U28G, C30G", "DNA 1": "CAATCTGAATTCCGGTCTCCC", "DNA 2": "TGGTGGCTACGACGGGATT"}, "B20": {"name": "UGAGCAU (DNA:RNA)", "RNA": "B7 RNA with G25U, A26G, C27A, A29C, G30A, C31U", "DNA 1": "CAATCTGAATTCCGGTCTCCC", "DNA 2": "TGGTGGCTACGACGGGATT"}, "B21": {"name": "CUUUGAA (DNA:RNA)", "RNA": "B1 RNA with U25C, G27U, U29G, C30A, G31A", "DNA 1": "CAATCTGAATTCCGGTCTCCC", "DNA 2": "TGGTGGCTACGACGGGATT"}, "B22": {"name": "AUCUUCA (DNA:RNA)", "RNA": "B1 RNA with U25A, G27C, G31A", "DNA 1": "CAATCTGAATTCCGGTCTCCC", "DNA 2": "TGGTGGCTACGACGGGATT"}, "B23": {"name": "UGCUGAG (DNA:RNA)", "RNA": "B1 RNA with U26G, G27C, U29G, C30A", "DNA 1": "CAATCTGAATTCCGGTCTCCC", "DNA 2": "TGGTGGCTACGACGGGATT"}, "B24": {"name": "CAAGCCG (DNA:RNA)", "RNA": "B7 RNA with G25C, C27A, A29C, G30C, C31G", "DNA 1": "CAATCTGAATTCCGGTCTCCC", "DNA 2": "TGGTGGCTACGACGGGATT"}, "B25": {"name": "UAGGCAC (DNA:RNA)", "RNA": "B7 RNA with G25U, C27G, A29C, G30A", "DNA 1": "CAATCTGAATTCCGGTCTCCC", "DNA 2": "TGGTGGCTACGACGGGATT"}, "B26": {"name": "AUCUUGA (DNA:RNA)", "RNA": "B1 RNA with U25A, G27C, C30G, G31A", "DNA 1": "CAATCTGAATTCCGGTCTCCC", "DNA 2": "TGGTGGCTACGACGGGATT"}, "B27": {"name": "GCGUUAA (DNA:RNA)", "RNA": "B1 RNA with U25G, U26C, C30A, G31A", "DNA 1": "CAATCTGAATTCCGGTCTCCC", "DNA 2": "TGGTGGCTACGACGGGATT"}, "B28": {"name": "CGAGAAU (DNA:RNA)", "RNA": "B7 RNA with G25C, A26G, C27A, G30A, C31U", "DNA 1": "CAATCTGAATTCCGGTCTCCC", "DNA 2": "TGGTGGCTACGACGGGATT"}, "B29": {"name": "CUCGUGC (DNA:RNA)", "RNA": "B7 RNA with G25C, A26U, A29U", "DNA 1": "CAATCTGAATTCCGGTCTCCC", "DNA 2": "TGGTGGCTACGACGGGATT"}, "B30": {"name": "CACGACU (DNA:RNA)", "RNA": "B7 RNA with G25C, G30C, C31U", "DNA 1": "CAATCTGAATTCCGGTCTCCC", "DNA 2": "TGGTGGCTACGACGGGATT"}, "B31": {"name": "AUGCUUU (DNA:RNA)", "RNA": "B1 RNA with U25A, U28C, C30U, G31U", "DNA 1": "CAATCTGAATTCCGGTCTCCC", "DNA 2": "TGGTGGCTACGACGGGATT"}}, "note": "Residue numbers refer to the chain shown, from its start. The list shows a part of the results.", "data": [{"target": "T1, RBFOX1 RRM (Homo sapiens, UniProt Q9NWB1 109-208)", "T1 sequence": "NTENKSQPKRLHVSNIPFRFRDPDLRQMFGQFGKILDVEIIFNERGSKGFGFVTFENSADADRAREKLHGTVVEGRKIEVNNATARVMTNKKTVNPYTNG", "assay": "EMSA; HiTS-Eq, 1 nM pool, 10 min; buffer printed only for the single-RNA assays: 10 mM Tris pH 7.5, 150 mM NaCl, 3.4 mM EDTA, 0.001% NP-40, 30 C", "conditions": "tags: His6 N-terminal (pET28a); label: 5' 32P", "outline": "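These values rest on relative association constants, computed from read-count changes of each RNA species versus the control reaction and normalised to the cognate motif. Reads came from free RNA recovered by 8% native PAGE after purified RbFox RRM (wild type or mutant) at increasing concentrations was equilibrated for 10 min in 50 µL with 1 nM of a 5′-radiolabelled pool with 7 randomized nucleotides and DNA-annealed flanks.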", "values": [{"binder": "B1", "binding signal": "0.0364 KA relative to UGCAUGU"}, {"binder": "B2", "binding signal": "0.00287 KA relative to UGCAUGU"}, {"binder": "B3", "binding signal": "0.0119 KA relative to UGCAUGU"}, {"binder": "B4", "binding signal": "0.00307 KA relative to UGCAUGU"}, {"binder": "B5", "binding signal": "0.0153 KA relative to UGCAUGU"}, {"binder": "B6", "binding signal": "0.0129 KA relative to UGCAUGU"}, {"binder": "B7", "binding signal": "0.0192 KA relative to UGCAUGU"}, {"binder": "B8", "binding signal": "0.0197 KA relative to UGCAUGU"}, {"binder": "B9", "binding signal": "0.011 KA relative to UGCAUGU"}, {"binder": "B10", "binding signal": "0.0115 KA relative to UGCAUGU"}, {"binder": "B11", "binding signal": "0.0126 KA relative to UGCAUGU"}, {"binder": "B12", "binding signal": "0.00338 KA relative to UGCAUGU"}, {"binder": "B13", "binding signal": "0.00787 KA relative to UGCAUGU"}, {"binder": "B14", "binding signal": "0.0193 KA relative to UGCAUGU"}, {"binder": "B15", "binding signal": "0.00541 KA relative to UGCAUGU"}, {"binder": "B16", "binding signal": "0.00645 KA relative to UGCAUGU"}, {"binder": "B17", "binding signal": "0.0036 KA relative to UGCAUGU"}, {"binder": "B18", "binding signal": "0.000934 KA relative to UGCAUGU"}, {"binder": "B19", "binding signal": "0.0121 KA relative to UGCAUGU"}, {"binder": "B20", "binding signal": "0.0172 KA relative to UGCAUGU"}, {"binder": "B21", "binding signal": "0.0159 KA relative to UGCAUGU"}, {"binder": "B22", "binding signal": "0.0037 KA relative to UGCAUGU"}, {"binder": "B23", "binding signal": "0.0319 KA relative to UGCAUGU"}, {"binder": "B24", "binding signal": "0.00258 KA relative to UGCAUGU"}, {"binder": "B25", "binding signal": "0.0119 KA relative to UGCAUGU"}, {"binder": "B26", "binding signal": "0.012 KA relative to UGCAUGU"}, {"binder": "B27", "binding signal": "0.00728 KA relative to UGCAUGU"}, {"binder": "B28", "binding signal": "0.0105 KA relative to UGCAUGU"}, {"binder": "B29", "binding signal": "0.0159 KA relative to UGCAUGU"}, {"binder": "B30", "binding signal": "0.00136 KA relative to UGCAUGU"}, {"binder": "B31", "binding signal": "0.0125 KA relative to UGCAUGU"}]}]}
